Assay results published in patent publication US12036204B2, “Pharmaceutical composition for treating tumor” (Eisai R&D Management Co., Ltd., priority 2019, dated 2024).
Where a name gives a salt, the structure may show the parent alone.

Tests used:
[1] = test system: murine colorectal cancer CT-26 cell line with P glycoprotein knock-out (Pgp-KO CT-26); experiment: Antitumor effect in Pgp-KO CT-26 tumor transplantation model (Example 3); assay type: in vivo, mouse; settings: in comparison with the control group; 0.3 mg/kg
Excerpt: From mouse colorectal cancer CT-26 cells (purchased from ATCC), a P glycoprotein knockout cell line (Pgp-KO CT-26) was produced in accordance with the same materials and procedures used in the production of Pgp-KO 4T1 cells.

[2] = test system: murine breast cancer 4T1 cell line with P glycoprotein knock-out (Pgp-KO 4T1); experiment: Antitumor effect in Pgp-KO 4T1 tumor transplantation model, low dose 0.1 mg/kg (Example 1); settings: anti-mouse PD-1 antibody 200 μg/mouse

C=C1C[C@@H]2CC[C@@]34C[C@H]5O[C@H]6[C@@H](O3)[C@H]3O[C@H](CC[C@@H]3O[C@H]6[C@H]5O4)CC(=O)C[C@@H]3[C@@H](OC)[C@@H](C[C@H](O)CN)O[C@H]3C[C@H]3O[C@@H](CC[C@@H]1O2)C[C@@H](C)C3=C [Eribulin mesylate]
Antitumor effect (tumor volume) [1]: no antitumor effect | Effect of extending the time of suppressing tumor growth (Tx5) ([2]; vs control): no extension effect | Antitumor effect (tumor volume, FIG. 1) ([2]; in comparison with the control group): no antitumor effect
